Our source for the TGI and GI50 values is PubChem BioAssay (NCI).

Assay in all cases: growth of human tumour cells (NCI), 48 h
The subject of test [1] is T-47D breast.
Test [2] has as its system IGROV1 ovarian.
Test [3] concerns UO-31 renal.
Test [4] concerns HCT-15 colon.
In test [5] the test system is HT29 colon.
Test [6] relates to NCI-H23 lung.
Test [7] has as its system DU-145 prostate.
In test [8] the test system is HCT-116 colon.
For test [9], the system named is SK-OV-3 ovarian.
For test [10], the system named is DMS 273 small cell lung.
The subject of test [11] is K-562 leukemia.
The test system of test [12] is HL-60(TB) leukemia.
The subject of test [13] is DMS 114 small cell lung.
Test [14] has as its system SR leukemia.
The subject of test [15] is MOLT-4 leukemia.
Test [16] concerns NCI-H226 lung.
In test [17] the test system is MDA-N.
The subject of test [18] is SK-MEL-5 melanoma.
For test [19], the system named is SN12C renal.
Test [20] concerns BT-549 breast.
Test [21] concerns SF-539 CNS.
The test system of test [22] is HOP-92 NSCLC.
For test [23], the system named is A498 renal.
The test system of test [24] is RPMI-8226 leukemia.
The test system of test [25] is PC-3 prostate.
Test [26] concerns SF-295 CNS.
Test [27] concerns OVCAR-3 ovarian.
Test [28] deals with NCI-H522 lung.
Test [29] has as its system SK-MEL-2 melanoma.
Test [30] concerns OVCAR-5 ovarian.
In test [31] the test system is ACHN renal.
The subject of test [32] is MCF7 breast.
Test [33] relates to CAKI-1 renal.
The test system of test [34] is A549 NSCLC.
The subject of test [35] is SK-MEL-28 melanoma.
Test [36] has as its system KM12 colon.
The test system of test [37] is UACC-62 melanoma.
The test system of test [38] is SF-268 CNS.
Test [39] concerns TK-10 renal.
Test [40] has as its system HOP-62 NSCLC.
For test [41], the system named is EKVX NSCLC.
In test [42] the test system is M14 melanoma.
Test [43] has as its system HCC-2998 colon.
Test [44] has as its system LOX IMVI melanoma.
In test [45] the test system is 786-0 renal.

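Dose response: 5 concentrations. Exposure: 48 h. Format: 96-well plates. Endpoint: linear interpolation; highest concentration if not reached. The concentration for 50% growth inhibition is given as GI50.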 For part of its entries the source gives two or more results. This list holds those alone. The source may hold further records. For some of these results: Records of one sample usually come from different ranges of test concentrations, not given here; some values may only mark the edge of a range. For some of these results: Results that share an entry repeat one measurement (runs, samples, wells, individuals or studies). What stands in brackets tells the records apart. A, B and so on number the origins entry by entry.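 TGI denotes the concentration required for complete inhibition of growth.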 A value given as a limit tells only on which side of the number the result lay.

`C=C1C(=O)O[C@H]2C3OC3(C)CC/C=C(/C(=O)OC)[C@@H](OC(C)=O)[C@H](OC(=O)C3(C)OC3C)[C@H]12` (stereo partly specified): the TGI in test [1] was 2.93 µM and 32.3 µM.
Regarding `CCOC(=O)Nc1cc2c(c(N)n1)N=C(c1ccccc1)CN2`, the TGI in [2] was 0.926 nM and 984 nM; in [3], 226 nM and 10.8 µM; in test [4] it was 1.59 nM and 24.7 µM; in test [5] it was < 0.1 nM and 28.8 nM; in test [6], 142 nM and > 32.3 µM; in test [7], 27.5 nM and 14.6 µM. Further, the TGI in test [8] was 10.5 nM and 12.2 µM.
Take `NCCNc1ccc(NCCN)c2c1C(=O)c1c(O)ccc(O)c1C2=O`: the TGI in test [9] was 1.41 µM and 80.1 nM; in test [10], 1.79 nM and 269 nM; in [12], 4.73 µM and < 25.5 nM; in test [13], 2.27 nM and 159 nM. In addition, the GI50 in test [11] was 390 nM and 10.2 nM.
`O=C1NC(c2cccc3ccccc23)Nc2ccccc21` (stereo unspecified): the TGI in test [14] is 45 nM and 1.39 µM; in test [11], 142 nM and > 59.7 µM; in test [15] it was 451 nM and > 43.9 µM; in test [16] it was 83.9 nM and 1.72 µM; in test [18], 109 nM and 2.1 µM; in test [8], 929 nM and 9.53 µM. Further, the GI50 in test [17] is 2.12 nM and 21.8 nM.
For `CC(=O)OC1(C)CC(C)C(=O)C(C(O)CC2CC(=O)NC(=O)C2)C1` (stereo unspecified), the TGI in [19] was 830 nM and 19.6 nM; in test [20] it was 426 nM and 14.4 µM; in test [21], 871 nM and 37.8 nM; in [6], 699 nM and 27.8 nM.
For `CC(=O)OCC1OC([S-])C(OC(C)=O)C(OC(C)=O)C1OC(C)=O.[Au+].c1ccc(CN2[CH-]N(Cc3ccccc3)C(c3ccccc3)=C2c2ccccc2)cc1`, the GI50 in test [22] is 1.81 µM [sample A, 1 test] and 127 nM [sample B, mean of 2 tests]; in test [23], 7.74 µM [sample A, 1 test] and 240 nM [sample B, mean of 2 tests]; in test [24], 2.53 µM [sample A, 1 test] and 219 nM [sample B, mean of 2 tests]; in test [19], 2.06 µM [sample A, 1 test] and 193 nM [sample B, mean of 2 tests]; in test [25] it was 2.1 µM [sample A, 1 test] and 201 nM [sample B, mean of 2 tests]; in [26], 6.12 µM [sample A, 1 test] and 223 nM [sample B, mean of 2 tests]. Also, the TGI in [23] is 20.4 µM [sample A, 1 test] and 1.11 µM [sample B, mean of 2 tests]; in test [15], > 100 µM [sample A, 1 test] and 6.87 µM [sample B, mean of 2 tests]; in test [18], 17.4 µM [sample A, 1 test] and 1.72 µM [sample B, mean of 2 tests].
Turning to `CC[C@H](C)[C@H](NC(=O)[C@H]1CCCCN1C)C(=O)N(C)[C@H](C[C@@H](OC(C)=O)c1nc(C(=O)NC23C4C5C2C2C3C4C52C(=O)OC)cs1)C(C)C` (stereo partly specified), the GI50 in [14] was 0.159 nM and 2.5 nM. Further, the TGI in test [27] was 45.1 nM and < 2.5 nM; in [28], 42.8 nM and < 2.5 nM.
Turning to `COc1ccc(C2CC(c3ccc4ccccc4c3)=NN2c2nc(O)c(C3=c4cc(Cl)ccc4=NC3=O)s2)cc1` (stereo unspecified), the TGI in [29] was 75.2 nM and < 5 nM; in [30] it was 116 nM and < 5 nM; in test [22], 50.1 nM and < 5 nM; in test [9], 51.5 nM and < 5 nM; in test [31], 71.7 nM and < 5 nM; in [32], 224 nM and < 5 nM. In addition, the TGI in test [15] is 325 nM and < 5 nM; in test [33] it was 223 nM and 50 µM; in [34], 71.1 nM and < 5 nM; in test [19] it was 75.3 nM and < 5 nM; in test [20], 583 nM and < 5 nM; in [35], 77.6 nM and < 5 nM. Further, the TGI in [25] was 93.7 nM and < 5 nM; in test [36] it was 58.4 nM and < 5 nM; in test [1], 54.4 nM and < 5 nM; in test [37], 117 nM and < 5 nM; in test [38], 89.5 nM and < 5 nM; in test [39], 55.2 nM and < 5 nM. Besides, the TGI is 57.5 nM and < 5 nM in test [40]; 131 nM and < 5 nM in test [41]; 137 nM and < 5 nM in [42]; 60.3 nM and < 5 nM in [6]; 51.3 nM and < 5 nM in test [43]; 54.1 nM and < 5 nM in [44]. Further, the TGI in test [45] is 58.3 nM and < 5 nM.
